# Results: PubChem BioAssay (NCATS)
# “And” between values parts separate entries of the source, which are not always exact repeats. Equal entries are not always repeated. The inconclusive results got no clear call from the source; some entries with a clear call stand among them for comparison. Potencies of inconclusive entries are doubtful fits and often do not repeat. A structure can be active in one record and inactive in another. The source made the active and inactive calls. Unless noted, calls follow the shape of the dose curve; as a rule, active = well fitted curve in the direction sought with a large enough effect; inconclusive = small, poorly fitted or top-dose-only effect, or another doubt; inactive = no such curve, though single readings can be large; an effect the other way counts as inactive or inconclusive.
# Tests used:
# [1] = qHTS for Inhibitors of Plasmodium falciparum (7G8) proliferation (AID 504316); also: nearly all actives have a fitted effect of over 65% in size; settings: P. falciparum 7G8 in erythrocytes, SYBR Green DNA, 72 h; activity change, negative = inhibition: at 6.7 µM (top of the series)
# Outline: (§1)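 Parasite growth measured as SYBR Green DNA fluorescence (ex 485, em 535 nm) after overnight lysis following 72 h culture at 37 °C, 0.3% parasitemia, 2.5% hematocrit. Values normalized against DMSO and 0.29 uM artemisinin controls, with plate-stack correction.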
# [2] = qHTS for Inhibitors of Plasmodium falciparum (HB3) proliferation (AID 504318); also: nearly all actives have a fitted effect of over 60% in size; settings: P. falciparum HB3 in erythrocytes, SYBR Green DNA, 72 h; activity change, negative = inhibition: at 7.21 µM (top of the series)
# Outline: as §1
# [3] = molecular target: Atrial natriuretic peptide receptor 1 (Homo sapiens) (UniProt P16066); assay: Natriuretic polypeptide receptor (hNpr1) antagonism - Pilot CMLD screen (AID 1347052; calls by dose curve;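 also: cGMP level read as GloSensor luciferase luminescence after agonist stimulation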;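 as to activity change, negative = inhibition: HEK293 cells with hNpr1 stimulated by hNppA peptide at 0.1 nM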)
# Chain of UniProt P16066 (P16066 whole entry, looked up): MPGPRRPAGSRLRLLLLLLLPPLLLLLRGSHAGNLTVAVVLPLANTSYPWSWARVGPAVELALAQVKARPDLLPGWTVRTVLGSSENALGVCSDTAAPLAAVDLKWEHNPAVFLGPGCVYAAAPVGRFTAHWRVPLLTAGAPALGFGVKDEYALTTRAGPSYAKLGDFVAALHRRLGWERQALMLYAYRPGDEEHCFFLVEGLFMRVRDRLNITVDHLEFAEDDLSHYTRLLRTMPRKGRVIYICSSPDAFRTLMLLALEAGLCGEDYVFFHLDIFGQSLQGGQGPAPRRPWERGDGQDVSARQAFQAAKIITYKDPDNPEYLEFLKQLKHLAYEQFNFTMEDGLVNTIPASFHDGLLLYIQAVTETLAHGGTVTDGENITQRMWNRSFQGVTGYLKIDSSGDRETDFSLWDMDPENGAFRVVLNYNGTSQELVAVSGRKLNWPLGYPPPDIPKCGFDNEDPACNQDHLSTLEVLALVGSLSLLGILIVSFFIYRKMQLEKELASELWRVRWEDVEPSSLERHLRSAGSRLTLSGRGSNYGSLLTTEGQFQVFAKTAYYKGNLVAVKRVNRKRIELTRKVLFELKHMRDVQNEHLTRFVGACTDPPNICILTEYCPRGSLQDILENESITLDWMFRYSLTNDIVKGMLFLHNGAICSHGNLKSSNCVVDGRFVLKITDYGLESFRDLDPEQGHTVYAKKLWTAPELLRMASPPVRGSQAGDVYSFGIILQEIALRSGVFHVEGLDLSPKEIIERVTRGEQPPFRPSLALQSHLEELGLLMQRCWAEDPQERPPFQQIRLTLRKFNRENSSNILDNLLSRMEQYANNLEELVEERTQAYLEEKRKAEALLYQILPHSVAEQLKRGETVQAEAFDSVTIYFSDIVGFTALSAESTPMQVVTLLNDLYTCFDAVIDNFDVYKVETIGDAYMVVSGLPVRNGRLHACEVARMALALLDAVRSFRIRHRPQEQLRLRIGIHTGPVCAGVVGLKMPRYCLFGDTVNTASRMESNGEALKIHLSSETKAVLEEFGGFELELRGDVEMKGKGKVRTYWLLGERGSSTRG
# [4] = qHTS for Inhibitors of Plasmodium falciparum (CP250) proliferation (AID 504320)
# Outline: as §1
# Potency is read from the fitted curve at half-maximal effect; tags tell the direction and shape of the fitted curve.
SMILES,Potency [1],Potency [2],Potency [3],Potency [4]
COC(=O)N[C@H](CC(C)=O)c1ccc(Cl)cc1,inactive,inactive,"inconclusive: 133 nM [inhibitor, full curve, poor fit]",–
CC#CCN1c2ccccc2[C@]23CCC(=O)N(CCCOC(C)C)C2=NC(C(=O)OC)=C(C(=O)OC)[C@H]13,"inconclusive: 1.51 µM [inhibitor, single point]","inconclusive: 1510 nM [inhibitor, partial curve]","inconclusive: 2660 nM [inhibitor, single point]",–
O=C(NS(=O)(=O)c1ccc(F)cc1)O[C@@H]1C(=O)c2cc(Br)ccc2O[C@H]1c1ccc2c(c1)OCO2,inactive,"inconclusive: 1690 nM [activator, single point]","inconclusive: 1190 nM [inhibitor, single point]",–
CCCCCCCc1cc2ccccc2c2c(C(=O)OC)c(-c3ccccc3)c(C(=O)OC)n12,–,inactive,"inconclusive: 5310 nM [inhibitor, single point]",–
CCN1C(=O)N[C@@H](c2ccccc2)[C@H](C(=O)OC)[C@H]1C,–,inactive,inactive,–
COC(=O)CC1c2ccccc2C=C(C2CC2)N1C(=O)OC (centres undefined),"inactive and inconclusive: 3.38 µM [inhibitor, single point]","inconclusive: 1510 nM [inhibitor, single point]","inconclusive: 150 nM [inhibitor, full curve, poor fit]",inconclusive: 0.5 nM [activator]
COC(=O)C(C(=O)OC)C1c2ccccc2C=C(C2CC2)N1C(=O)OC (centres undefined),inactive,inactive,active: 531 nM,–
CCOC(=O)C1=CN(CCC=C(C)C)C(=O)NC1c1ccccc1 (centres undefined),–,inactive,inactive,–
c1ccc(CNc2oc(-c3ccccc3)nc2-c2cccc3ccccc23)cc1,"inconclusive: 4.26 µM [inhibitor, single point] and inconclusive: 1.9 µM [inhibitor, single point]",active: 3290 nM,"inconclusive: 5310 nM [inhibitor, single point]","inconclusive: 4.26 µM [inhibitor, single point] and inconclusive: 4.26 µM [inhibitor, partial curve, poor fit]"
C=C(C(C)=O)C(O)c1ccc([N+](=O)[O-])cc1 (centres undefined),inactive,–,active: 1880 nM,–
O=C(NN=C1C[C@@H](O)[C@H](O)[C@H]2[C@@H]3C(=O)N(C4CCCCC4)C(=O)[C@@H]3CC[C@@H]12)OCc1ccccc1,–,"inconclusive: 1070 nM [inhibitor, partial curve, poor fit]",inactive,–
C[C@H]1CC[C@H]2C(=O)N(Cc3ccccc3)C[C@H](O)CN2[C@H]1c1cccc(Br)c1,"inconclusive: 1.69 µM [inhibitor, partial curve]","inconclusive: 1900 nM [inhibitor, partial curve]","inconclusive: 5310 nM [inhibitor, single point]",inactive
CCOC(=O)CCN1C(=O)[C@@H]2[C@H]3[C@H](O)[C@H](O)CC(=NOCc4ccccc4)[C@@H]3CC[C@H]2C1=O,"inconclusive: 1.9 µM [inhibitor, single point]","inconclusive: 1690 nM [inhibitor, partial curve]",inactive,–
CC(CCN1CCCc2nc(C)c(C)cc21)=NO[C@H](C)c1cn([C@@H]2COC[C@@H]2O)nn1,inactive,–,"inconclusive: 1190 nM [inhibitor, single point]","inconclusive: 4780 nM [inhibitor, partial curve, poor fit]"
C=C(C(C)=O)C(O)c1ccc2ccccc2c1 (centres undefined),"inconclusive: 1.51 µM [inhibitor, single point]",–,"inconclusive: 7500 nM [inhibitor, single point]",–
CC1(OC(=O)C2CCCC2)C(=O)C=C2C=C(c3ccsc3)N(c3cccc(C#N)c3)C=C2C1=O (centres undefined),"inconclusive: 1.69 µM [inhibitor, partial curve, poor fit]",inactive and inconclusive: 0.8 nM [inhibitor],active: 2660 nM,–
CC(C)=CCCC(C)=CCN1C(=O)[C@]2(O[C@H](C)CC3=CCCC32)c2c(Br)cccc21 (some centres undefined),"inconclusive: 3.38 µM [inhibitor, single point]","inconclusive: 1510 nM [inhibitor, partial curve]",inactive,–
CN1c2ccccc2[C@@]2(O)C(=O)[C@@]1(C)[C@@H]1CCC=C[C@H]12,–,inactive,inactive,–
COc1cccc([C@@H]2Oc3ccc(Br)cc3C(=O)[C@@H]2OC(=O)Nc2ccc(OC(F)F)cc2)c1,"inconclusive: 1.9 µM [inhibitor, single point]","inconclusive: 1510 nM [inhibitor, partial curve]","inconclusive: 266 nM [inhibitor, partial curve]",–
C=CC1=C2C=C(C3CC3)N(CCN3CCOCC3)C=C2C(=O)C(C)(OC(=O)c2ccco2)C1=O (centres undefined),inactive,inactive,inactive,inactive
CC=Cc1cc2ccccc2c2c(C(=O)OC)c(C(=O)OC)c(C(=O)OC)n12,–,"inconclusive: 1510 nM [inhibitor, partial curve]","inconclusive: 133 nM [inhibitor, single point]",–
C[C@@H](c1ccccc1)N1C(=O)[C@@H]2[C@H]3[C@H](O)[C@H](O)CC(=NNC(=O)OCc4ccccc4)[C@@H]3CC[C@H]2C1=O,inactive,"inconclusive: 2690 nM [inhibitor, single point]","inconclusive: 1190 nM [inhibitor, single point]",–
CCOC(=O)NN=C1C[C@@H](O)[C@@H](O)[C@@H]2[C@H]3C(=O)N([C@@H](C)c4ccccc4)C(=O)[C@@H]3CC[C@@H]12,–,inactive,"inconclusive: 1190 nM [inhibitor, single point]",–
